Measured values as given in patent US20120014957A1 (AbbVie / Abbott, published 2012).

Assays:
[1] = target: Recombinant Human β-NGF (human, UniProt P01138 part only); test: cell-based or functional assay
[2] = target: T1, Recombinant Human VEGF 165 (human, UniProt P15692-4 27-191); test: SPR (Biacore)
T1 construct: Bought reagent
T1 sequence (looked up): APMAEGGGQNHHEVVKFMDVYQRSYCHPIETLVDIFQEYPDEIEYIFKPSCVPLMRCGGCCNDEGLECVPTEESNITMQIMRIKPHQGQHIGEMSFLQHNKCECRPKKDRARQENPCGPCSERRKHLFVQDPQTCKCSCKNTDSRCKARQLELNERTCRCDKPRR
Experimental: (§1) The BIACORE assay (Biacore, Inc, Piscataway, N.J.) determines the affinity of antibodies or DVD-Ig with kinetic measurements of on-rate and off-rate constants. Binding of antibodies or DVD-Ig to a target antigen (for example, a purified recombinant target antigen) was determined by surface plasmon resonance-based measurements with a Biacore® 1000 or 3000 instrument (Biacore® AB, Uppsala, Sweden) using running HBS-EP (10 mM HEPES [pH 7.4], 150 mM NaCl, 3 mM EDTA, and 0.005% surfactant P20) at 25° C. All chemicals were obtained from Biacore® AB (Uppsala, Sweden) or otherwise from a different source as described in the text. For example, approximately 5000 RU of goat anti-mouse IgG, (Fcγ), fragment specific polyclonal antibody (Pierce Biotechnology Inc, Rockford, Ill.) diluted in 10 mM sodium acetate (pH 4.5) was directly immobilized across a CM5 research grade biosensor chip using a standard amine coupling kit according to manufacturer's instructions and procedures at 25 μg/ml. Unreacted moieties on the biosensor surface were blocked with ethanolamine. Modified carboxymethyl dextran surface in flowcell 2 and 4 was used as a reaction surface. Unmodified carboxymethyl dextran without goat anti-mouse IgG in flow cell 1 and 3 was used as the reference surface. For kinetic analysis, rate equations derived from the 1:1 Langmuir binding model were fitted simultaneously to association and dissociation phases of all eight injections (using global fit analysis) with the use of Biaevaluation 4.0.1 software. Purified antibodies or DVD-Ig were diluted in HEPES-buffered saline for capture across goat anti-mouse IgG specific reaction surfaces. Antibodies or DVD-Ig to be captured as a ligand (25 μg/ml) were injected over reaction matrices at a flow rate of 5 μl/min. The association and dissociation rate constants, kₒₙ (M⁻¹s⁻¹) and koff (s⁻¹) were determined under a continuous flow rate of 25 μl/min. Rate constants were derived by making kinetic binding measurements at different antigen concentrations ranging from 10-200 nM. The equilibrium dissociation constant (M) of the reaction between antibodies or DVD-Igs and the target antigen was then calculated from the kinetic rate constants by the following formula: KD=koff/kₒₙ. Binding was recorded as a function of time and kinetic rate constants were calculated.

[3] = target: T2, Recombinant Human PlGF (human, UniProt P49763-2 21-149, limits assumed); test: SPR (Biacore)
T2 construct: Bought reagent; also called P1GF
T2 sequence (looked up): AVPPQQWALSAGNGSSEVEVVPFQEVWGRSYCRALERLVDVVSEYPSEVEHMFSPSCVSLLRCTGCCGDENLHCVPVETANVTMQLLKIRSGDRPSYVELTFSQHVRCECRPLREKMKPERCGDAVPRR
Experimental: as §1

Chain of UniProt P01138 (P01138 122-241 limits assumed): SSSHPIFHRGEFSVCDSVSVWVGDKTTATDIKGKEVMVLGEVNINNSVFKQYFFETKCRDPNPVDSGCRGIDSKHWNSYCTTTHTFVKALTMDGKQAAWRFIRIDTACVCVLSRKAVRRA

B1: DVD1319 (bispecific antibody, human IgG1, kappa)
heavy: EVQLVESGGGLVQPGGSLRLSCAASGFSLTNNNVNWVRQAPGKGLEWVGGVWAGGATDYNSALKSRFTISRDNSKNTAYLQMNSLRAEDTAVYYCARDGGYSSSTLYAMDAWGQGTLVTVSSASTKGPEVQLVESGGGLVQPGGSLRLSCAASGFTFSIYSMNWVRQAPGKGLEWVSYISSSSSTIYYADSVKGRFTISRDNAKNSLYLQMNSLRDEDTAVYYCARDRGDFDAFDIWGQGTMVTVSS[here human IgG1 constant region without letters]
light: DIQMTQSPSSLSASVGDRVTITCRASEDIYNALAWYQQKPGKAPKLLIYNTDTLHTGVPSRFSGSGSGTDYTLTISSLQPEDFATYFCQHYFHYPRTFGQGTKVEIKRTVAAPDIQMTQSPSSLSASVGDRVTITCQASQDITNYLNWYQQKPGKAPKLLIYDASNLETGVPSRFSGSGSGTDFTFTISSLQPEDIATYNCQQCENFPITFGQGTRLEIKRTVAAPSVFIFPPSDEQLKSGTASVVCLLNNFYPREAKVQWKVDNALQSGNSQESVTEQDSKDSTYSLSSTLTLSKADYEKHKVYACEVTHQGLSSPVTKSFNRGEC
In the case of B1, the “N-Terminal VD NGF Inhibition Assay EC50” value [1] is reported as 14.1 pM.

B2: DVD1337 (bispecific antibody, human IgG1, kappa)
heavy: EVQLVESGGGLVQPGGSLRLSCAASGFSLTNNNVNWVRQAPGKGLEWVGGVWAGGATDYNSALKSRFTISRDNSKNTAYLQMNSLRAEDTAVYYCARDGGYSSSTLYAMDAWGQGTLVTVSSASTKGPQVQLQESGPGLVKPSETLSLTCTVSGGSVSSGDYYWTWIRQSPGKGLEWIGHIYYSGNTNYNPSLKSRLTISIDTSKTQFSLKLSSVTAADTAIYYCVRDRVTGAFDIWGQGTMVTVSS[here human IgG1 constant region without letters]
light: DIQMTQSPSSLSASVGDRVTITCRASEDIYNALAWYQQKPGKAPKLLIYNTDTLHTGVPSRFSGSGSGTDYTLTISSLQPEDFATYFCQHYFHYPRTFGQGTKVEIKRTVAAPDIQMTQSPSSLSASVGDRVTITCQASQDISNYLNWYQQKPGKAPKLLIYDASNLETGVPSRFSGSGSGTDFTFTISSLQPEDIATYFCQHFDHLPLAFGGGTKVEIKRTVAAPSVFIFPPSDEQLKSGTASVVCLLNNFYPREAKVQWKVDNALQSGNSQESVTEQDSKDSTYSLSSTLTLSKADYEKHKVYACEVTHQGLSSPVTKSFNRGEC
For B2, the “N-Terminal VD NGF Inhibition Assay EC50” value [1] was 17 pM.

B3: DVD1351 (bispecific antibody, human IgG1, kappa)
heavy: EVQLVESGGGLVQPGGSLRLSCAASGFSLTNNNVNWVRQAPGKGLEWVGGVWAGGATDYNSALKSRFTISRDNSKNTAYLQMNSLRAEDTAVYYCARDGGYSSSTLYAMDAWGQGTLVTVSSASTKGPEVQLVESGGGLVQPGGSLRLSCAASGFSFSSEPISWVRQAPGKGLEWVSSITGKNGYTYYADSVKGRFTISADTSKNTAYLQMNSLRAEDTAVYYCARWGKKVYGMDVWGQGTLVTVSS[here human IgG1 constant region without letters]
light: DIQMTQSPSSLSASVGDRVTITCRASEDIYNALAWYQQKPGKAPKLLIYNTDTLHTGVPSRFSGSGSGTDYTLTISSLQPEDFATYFCQHYFHYPRTFGQGTKVEIKRTVAAPDIQMTQSPSSLSASVGDRVTITCRASQSISSYLAWYQQKPGKAPKLLIYGASSRASGVPSRFSGSGSGTDFTLTISSLQPEDFATYYCQQYMSVPITFGQGTKVEIKRTVAAPSVFIFPPSDEQLKSGTASVVCLLNNFYPREAKVQWKVDNALQSGNSQESVTEQDSKDSTYSLSSTLTLSKADYEKHKVYACEVTHQGLSSPVTKSFNRGEC
With B3 the “N-Terminal VD NGF Inhibition Assay EC50” value [1] was 5.1 pM.

B4: DVD1317 (bispecific antibody, human IgG1, kappa)
heavy: EVQLVESGGGLVQPGGSLRLSCAASGFSLTNNNVNWVRQAPGKGLEWVGGVWAGGATDYNSALKSRFTISRDNSKNTAYLQMNSLRAEDTAVYYCARDGGYSSSTLYAMDAWGQGTLVTVSSASTKGPQVQLQQWGAGLLKPSETLSLTCAVYGGSFSGYYWSWIRQPPGKGLEWIGEINHSGSTNYNPSLKSRVTISVETSKNQFSLKLSSVTAADTAVYYCARDKWTWYFDLWGRGTLVTVSS[here human IgG1 constant region without letters]
light: DIQMTQSPSSLSASVGDRVTITCRASEDIYNALAWYQQKPGKAPKLLIYNTDTLHTGVPSRFSGSGSGTDYTLTISSLQPEDFATYFCQHYFHYPRTFGQGTKVEIKRTVAAP[here about 200 residues without letters]
In the case of B4, the “N-Terminal VD NGF Inhibition Assay EC50” value [1] is reported as 1.1 pM.

B5: DVD1327 (bispecific antibody, human IgG1, kappa)
heavy: EVQLVESGGGLVQPGGSLRLSCAASGFSLTNNNVNWVRQAPGKGLEWVGGVWAGGATDYNSALKSRFTISRDNSKNTAYLQMNSLRAEDTAVYYCARDGGYSSSTLYAMDAWGQGTLVTVSSASTKGPEVQLVESGGGLVQPGGSLRLSCAASGYTFTNYGMNWVRQAPGKGLEWVGWINTYTGEPTYAADFKRRFTFSLDTSKSTAYLQMNSLRAEDTAVYYCAKYPHYYGSSHWYFDVWGQGTLVTVSS[here human IgG1 constant region without letters]
light: DIQMTQSPSSLSASVGDRVTITCRASEDIYNALAWYQQKPGKAPKLLIYNTDTLHTGVPSRFSGSGSGTDYTLTISSLQPEDFATYFCQHYFHYPRTFGQGTKVEIKRTVAAPDIQMTQSPSSLSASVGDRVTITCSASQDISNYLNWYQQKPGKAPKVLIYFTSSLHSGVPSRFSGSGSGTDFTLTISSLQPEDFATYYCQQYSTVPWTFGQGTKVEIKRTVAAPSVFIFPPSDEQLKSGTASVVCLLNNFYPREAKVQWKVDNALQSGNSQESVTEQDSKDSTYSLSSTLTLSKADYEKHKVYACEVTHQGLSSPVTKSFNRGEC
notes: DVD-Ig; also called DVD1327H; DVD1327L
For B5, the Kd [2] was 3.2 pM, the koff [2] was 1.7e-05 s⁻¹ and the kon [2] was 5.2e+06 M⁻¹ s⁻¹.

B6: DVD1331 (bispecific antibody, human IgG1, kappa)
heavy: EVQLVESGGGLVQPGGSLRLSCAASGFSLTNNNVNWVRQAPGKGLEWVGGVWAGGATDYNSALKSRFTISRDNSKNTAYLQMNSLRAEDTAVYYCARDGGYSSSTLYAMDAWGQGTLVTVSSASTKGPQVQLQQSGAELVKPGASVKISCKASGYTFTDYYINWVKLAPGQGLEWIGWIYPGSGNTKYNEKFKGKATLTIDTSSSTAYMQLSSLTSEDTAVYFCVRDSPFFDYWGQGTLLTVSS[here human IgG1 constant region without letters]
light: DIQMTQSPSSLSASVGDRVTITCRASEDIYNALAWYQQKPGKAPKLLIYNTDTLHTGVPSRFSGSGSGTDYTLTISSLQPEDFATYFCQHYFHYPRTFGQGTKVEIKRTVAAPDIVLTQSPDSLAVSLGERVTMNCKSSQSLLNSGMRKSFLAWYQQKPGQSPKLLIYWASTRESGVPDRFTGSGSGTDFTLTISSVQAEDVAVYYCKQSYHLFTFGSGTKLEIKRTVAAPSVFIFPPSDEQLKSGTASVVCLLNNFYPREAKVQWKVDNALQSGNSQESVTEQDSKDSTYSLSSTLTLSKADYEKHKVYACEVTHQGLSSPVTKSFNRGEC
notes: DVD-Ig; also called DVD1331H; DVD1331L
For B6, the Kd [3] was 1400 pM and the koff [3] was 0.00028 s⁻¹.
